# Source: the supplement of paper PMC10126150
# Values marked as one replicate rest on one cluster of the flow cell; about a third of the high ones do not repeat.
# Test system: ATP
# Experiment: switch fluorescence ratio, 500 uM ATP over buffer (Cy3 cluster intensity, sum of 5 cycles each) (fold (ratio)); higher = stronger signal-on switching upon ATP binding; sequences stand for … in TCGTCGGCAGCGTCAGATGTGTATAAGAGACAGTTTTTTTTTTTTTTTTTTTTTTTTT…TC
# Conditions: aptamer strand: ATP DNA aptamer (quencher-CACCTGGGGGAGTATTGCGGAGGAAGG + anchor), 100 nM annealed; ATP concentration: 500 uM; one replicate
# Outline: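 Switching-strand clusters labelled with Cy3 on a modified Illumina MiSeq flow-cell were annealed to 100 nM quencher-labelled ATP aptamer, imaged in selection buffer, and re-imaged after 15 min with 500 uM ATP at 22 °C. This was done over five cycles with NaOH stripping and re-annealing in between. The fluorescence ratio is summed target-cycle over summed buffer-cycle Cy3 intensity per cluster, averaged per switch-domain sequence, excluding clusters outside 100-1000 RFU.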
# 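Note: ATP exposure 15 min at 22 °C before imaging.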
row,Sequence,switch fluorescence ratio
1,GCCGATCTGG,0.968
2,GCCGCACCTG,0.995
3,GCCGCAGGAA,1.41
4,GCCGCCGCCC,1.24
5,GCCGCGGACA,0.953
6,GCCGCTTTCT,0.969
7,GCCGGAATGG,1.16
8,GCCGGAGGCC,1.04
9,GCCGGATTTG,0.986
10,GCCGGGACCT,1
11,GCCGGGCCGT,0.973
12,GCCGGGGCGA,1.04
13,GCCGGGGGCC,0.982
14,GCCGGGTGGA,0.979
15,GCCGGGTTGT,0.973
16,GCCGGTTAGC,0.968
17,GCCGTAGGGG,1.03
18,GCCGTCCGAG,1.01
19,GCCGTGGTCA,1
20,GCCGTTGGAC,1.05
21,GCCGTTGGTG,1.03
22,GCCTAATGTA,1.05
23,GCCTAGAAGG,0.988
24,GCCTAGCCGT,1.01
25,GCCTAGTCCC,1.01

row,Sequence,switch fluorescence ratio
1,GCCTCATCGT,0.977
2,GCCTCATCTG,0.946
3,GCCTCGGTCT,1.05
4,GCCTCTATTA,0.995
5,GCCTGAGGTT,1.01
6,GCCTGGGCCC,0.981
7,GCCTGTGCA,0.998
8,GCCTTAAGA,0.985
9,GCCTTAAGAC,1.03
10,GCCTTACTTG,1.07
11,GCCTTATAA,0.993
12,GCCTTATAT,0.995
13,GCCTTCTAAT,1.02
14,GCCTTTATTC,0.904
15,GCCTTTTCGC,1.09
16,GCGAACAAAC,1.12
17,GCGAACCGCT,1.09
18,GCGAACGAGG,1.02
19,GCGAACTTTC,1
20,GCGAAGAAT,1
21,GCGAATGTGG,0.983
22,GCGACATAA,1.05
23,GCGACCGTC,1.04
24,GCGACGAGCG,0.993
25,GCGACTGCAA,1.25

row,Sequence,switch fluorescence ratio
1,GCGACTGG,1.08
2,GCGACTTTAT,1.08
3,GCGACTTTGT,0.974
4,GCGAGACTAG,1.2
5,GCGAGAGGAA,1.01
6,GCGAGATGGA,1.04
7,GCGAGATTGG,0.988
8,GCGAGCCGCA,1.01
9,GCGAGCTACT,1.06
10,GCGAGGCGG,1
11,GCGAGGCGGG,1.07
12,GCGAGGGACG,0.976
13,GCGAGGGGCC,1.02
14,GCGAGGTCTT,0.959
15,GCGAGTAGA,1.03
16,GCGATACAGA,1.09
17,GCGATCATCC,1.21
18,GCGATCATTC,0.997
19,GCGATCCTAT,0.986
20,GCGATGACGC,1
21,GCGATGATA,0.978
22,GCGATGCTAA,1.06
23,GCGCAAAAGA,1.04
24,GCGCAAAAGC,0.992
25,GCGCACAGGG,1.17

row,Sequence,switch fluorescence ratio
1,GCGCACGGTC,1.1
2,GCGCACGTGC,1.04
3,GCGCAGGCCT,1.02
4,GCGCAGGGAC,2.44
5,GCGCAGGGCA,1.01
6,GCGCCAGCAG,0.978
7,GCGCCCGTCA,1.04
8,GCGCCGATTG,1.01
9,GCGCCTATGT,1.04
10,GCGCGAGTCA,1.03
11,GCGCGCAGGG,1.03
12,GCGCGCATAA,0.98
13,GCGCGCGTCT,0.988
14,GCGCTACAAT,1.03
15,GCGCTCAATA,1.09
16,GCGCTTGCAG,1.02
17,GCGGAAGCGT,1.02
18,GCGGAATCAG,0.999
19,GCGGAGAACA,0.997
20,GCGGAGCGTC,1.15
21,GCGGATCTAG,0.996
22,GCGGATTACT,1.22
23,GCGGATTCGT,0.959
24,GCGGCACTCC,2.65
25,GCGGCCGGAA,1.01

row,Sequence,switch fluorescence ratio
1,GCGGCCTATT,0.973
2,GCGGCGAATT,1
3,GCGGCGGCAT,1.02
4,GCGGCGTGAA,1.01
5,GCGGCTTGAA,1.03
6,GCGGGACCGG,0.993
7,GCGGGCGCCG,0.988
8,GCGGGGACT,1.02
9,GCGGGGACTC,1.07
10,GCGGGGAGCC,1
11,GCGGGGCTTG,1.01
12,GCGGGGGA,0.99
13,GCGGGTATTC,1.02
14,GCGGGTCACT,1.02
15,GCGGTAGCTG,0.973
16,GCGGTCAAAA,0.91
17,GCGGTCTAGT,0.973
18,GCGGTGCACA,1.05
19,GCGGTGCCTT,0.939
20,GCGGTGTACA,1.08
21,GCGGTTCTGG,0.968
22,GCGGTTGCG,0.939
23,GCGGTTTTCG,0.974
24,GCGTACTCAT,1.03
25,GCGTAGACGC,1.05

row,Sequence,switch fluorescence ratio
1,GCGTATAATA,0.972
2,GCGTCAGGCT,1.04
3,GCGTCATAAA,0.975
4,GCGTCATAGC,0.99
5,GCGTCCTGCA,0.995
6,GCGTCCTTTA,1.01
7,GCGTCGCCTG,1.01
8,GCGTGAAATT,1
9,GCGTGAGAGC,1.15
10,GCGTGATTAG,1.07
11,GCGTGCTGGG,0.968
12,GCGTGCTTGT,0.991
13,GCGTGGATGG,1
14,GCGTGGGAGC,1.07
15,GCGTGGGCAT,1
16,GCGTGTCGT,1.03
17,GCGTGTGCAT,1.07
18,GCGTGTGTAG,1.02
19,GCGTGTTGCG,1.04
20,GCGTGTTTTG,1.01
21,GCGTTAATAT,1.06
22,GCGTTACTTC,1.07
23,GCGTTCGCAG,0.972
24,GCGTTCTCTT,1.01
25,GCGTTGCTTT,0.972

row,Sequence,switch fluorescence ratio
1,GCGTTGGCGG,0.991
2,GCGTTGTGGT,1.01
3,GCGTTTTGGA,0.963
4,GCTAAAGCAT,1
5,GCTAAAGGCC,1.02
6,GCTAAATTTA,0.978
7,GCTAACCGTC,1.09
8,GCTACAACGC,1.12
9,GCTACAAGAA,1.04
10,GCTACCGCTT,1.13
11,GCTACGATCA,1.06
12,GCTACTTACC,1.33
13,GCTACTTCGA,1.04
14,GCTACTTCGT,0.984
15,GCTACTTGGA,1.01
16,GCTAGAAAGG,0.995
17,GCTAGACCGA,1.01
18,GCTAGACGTC,0.985
19,GCTAGCCCCG,1.04
20,GCTAGCCTCC,1.34
21,GCTAGCGTAC,1.56
22,GCTAGTCATA,0.96
23,GCTATCATCA,1.02
24,GCTATGGCTC,0.963
25,GCTATGGGTC,1.04

row,Sequence,switch fluorescence ratio
1,GCTATGTGTG,0.963
2,GCTATGTGTT,1.01
3,GCTATTCTCT,0.975
4,GCTATTGGTC,0.978
5,GCTATTGGTT,0.946
6,GCTCAACTTC,0.986
7,GCTCAGAGTT,1.03
8,GCTCAGTCTA,0.99
9,GCTCATCAGT,1
10,GCTCATCCTT,1.01
11,GCTCATTATC,1.04
12,GCTCCAATTA,1.34
13,GCTCCAATTG,1.09
14,GCTCCACGTC,1.19
15,GCTCCCCCGA,2.1
16,GCTCCCGGGT,1.77
17,GCTCCGAGTG,1.77
18,GCTCCTCGCA,1.63
19,GCTCGAAGAT,0.974
20,GCTCGTAATT,1.09
21,GCTCGTCAAT,1.11
22,GCTCTCAGTG,1.08
23,GCTCTCATTT,0.994
24,GCTCTCCATT,1.01
25,GCTCTGGGTT,1.02
